{"source": "the supplement of paper PMC10126150", "note": "Sequences with one replicate were seen in a single cluster, so their values are uncertain.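 Also: ATP exposure 15 min at 22 °C before imaging.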"}
{"tested_on": "ATP", "test": "switch fluorescence ratio, 500 uM ATP over buffer (Cy3 cluster intensity, sum of 5 cycles each) (fold (ratio)); higher = stronger signal-on switching upon ATP binding; sequences stand for … in TCGTCGGCAGCGTCAGATGTGTATAAGAGACAGTTTTTTTTTTTTTTTTTTTTTTTTT…TC", "conditions": "aptamer strand: ATP DNA aptamer (quencher-CACCTGGGGGAGTATTGCGGAGGAAGG + anchor), 100 nM annealed; ATP concentration: 500 uM; one replicate", "outline": "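The quencher-labelled ATP aptamer, at 100 nM, was annealed to Cy3-labelled switching-strand clusters on a modified Illumina MiSeq flow-cell. The clusters were imaged in selection buffer, then after 15 min with 500 uM ATP at 22 °C, and this buffer/ATP cycle ran five times with NaOH stripping and re-annealing between runs. Per-cluster fluorescence ratios, summed target-cycle over summed buffer-cycle Cy3 intensity, were averaged per switch-domain sequence. Clusters outside 100-1000 RFU were excluded.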"}
{"sequence": "GCGAAGGTTA", "switch fluorescence ratio": 0.991}
{"sequence": "GCGAATCTTG", "switch fluorescence ratio": 1}
{"sequence": "GCGACCCATG", "switch fluorescence ratio": 1.04}
{"sequence": "GCGACCGTTT", "switch fluorescence ratio": 1.15}
{"sequence": "GCGACGGTAG", "switch fluorescence ratio": 1.02}
{"sequence": "GCGAGAATTT", "switch fluorescence ratio": 0.94}
{"sequence": "GCGAGAGCCC", "switch fluorescence ratio": 1.01}
{"sequence": "GCGAGCCTAG", "switch fluorescence ratio": 0.987}
{"sequence": "GCGAGCGCAG", "switch fluorescence ratio": 1.06}
{"sequence": "GCGAGCTTTG", "switch fluorescence ratio": 0.969}
{"sequence": "GCGAGGCTGG", "switch fluorescence ratio": 1.02}
{"sequence": "GCGAGGGCGT", "switch fluorescence ratio": 1.02}
{"sequence": "GCGAGGGTA", "switch fluorescence ratio": 0.991}
{"sequence": "GCGAGTAGTT", "switch fluorescence ratio": 0.973}
{"sequence": "GCGAGTATAT", "switch fluorescence ratio": 1.01}
{"sequence": "GCGATAATAT", "switch fluorescence ratio": 0.989}
{"sequence": "GCGATAGGAG", "switch fluorescence ratio": 1.19}
{"sequence": "GCGATCCAGG", "switch fluorescence ratio": 2.9}
{"sequence": "GCGATCCGCC", "switch fluorescence ratio": 1.05}
{"sequence": "GCGATCGTCG", "switch fluorescence ratio": 0.96}
{"sequence": "GCGATGAACA", "switch fluorescence ratio": 1.01}
{"sequence": "GCGATGCAGT", "switch fluorescence ratio": 1.14}
{"sequence": "GCGATGTCGC", "switch fluorescence ratio": 1.05}
{"sequence": "GCGATGTGTT", "switch fluorescence ratio": 1}
{"sequence": "GCGATTATTC", "switch fluorescence ratio": 0.971}
{"sequence": "GCGCACCCCT", "switch fluorescence ratio": 1.42}
{"sequence": "GCGCACGAAA", "switch fluorescence ratio": 1.24}
{"sequence": "GCGCATCTAA", "switch fluorescence ratio": 1.06}
{"sequence": "GCGCATGTCG", "switch fluorescence ratio": 1.02}
{"sequence": "GCGCCAAAC", "switch fluorescence ratio": 1.56}
{"sequence": "GCGCCAACCG", "switch fluorescence ratio": 0.988}
{"sequence": "GCGCCAATGT", "switch fluorescence ratio": 1.19}
{"sequence": "GCGCCATTGC", "switch fluorescence ratio": 1.2}
{"sequence": "GCGCCCCTTC", "switch fluorescence ratio": 1.09}
{"sequence": "GCGCCCTTTT", "switch fluorescence ratio": 1.75}
{"sequence": "GCGCCTAAGG", "switch fluorescence ratio": 1.01}
{"sequence": "GCGCCTGCGA", "switch fluorescence ratio": 1.02}
{"sequence": "GCGCCTGGTG", "switch fluorescence ratio": 1.9}
{"sequence": "GCGCCTTAGA", "switch fluorescence ratio": 1.03}
{"sequence": "GCGCCTTGAG", "switch fluorescence ratio": 0.997}
{"sequence": "GCGCGATCCG", "switch fluorescence ratio": 1.01}
{"sequence": "GCGCGCGTGG", "switch fluorescence ratio": 1.03}
{"sequence": "GCGCGCTTGG", "switch fluorescence ratio": 0.996}
{"sequence": "GCGCGGGAGG", "switch fluorescence ratio": 0.998}
{"sequence": "GCGCGGGTTC", "switch fluorescence ratio": 1}
{"sequence": "GCGCGTTATT", "switch fluorescence ratio": 1.01}
{"sequence": "GCGCGTTTCC", "switch fluorescence ratio": 1.03}
{"sequence": "GCGCTAAGAT", "switch fluorescence ratio": 1.04}
{"sequence": "GCGCTCGGTC", "switch fluorescence ratio": 1.04}
{"sequence": "GCGCTGAGGC", "switch fluorescence ratio": 0.913}
{"sequence": "GCGCTGATGT", "switch fluorescence ratio": 1.01}
{"sequence": "GCGCTGGGAG", "switch fluorescence ratio": 1.02}
{"sequence": "GCGCTTTACT", "switch fluorescence ratio": 2.69}
{"sequence": "GCGCTTTTGT", "switch fluorescence ratio": 0.986}
{"sequence": "GCGGAAACCA", "switch fluorescence ratio": 1.04}
{"sequence": "GCGGACACTA", "switch fluorescence ratio": 1.03}
{"sequence": "GCGGACTT", "switch fluorescence ratio": 1.06}
{"sequence": "GCGGAGATGA", "switch fluorescence ratio": 1.04}
{"sequence": "GCGGATCGTT", "switch fluorescence ratio": 0.999}
{"sequence": "GCGGATGCTC", "switch fluorescence ratio": 1.06}
{"sequence": "GCGGCAAAAC", "switch fluorescence ratio": 1.07}
{"sequence": "GCGGCAAAG", "switch fluorescence ratio": 0.981}
{"sequence": "GCGGCAAATC", "switch fluorescence ratio": 1.04}
{"sequence": "GCGGCATCTG", "switch fluorescence ratio": 0.976}
{"sequence": "GCGGCCAAAA", "switch fluorescence ratio": 1.16}
{"sequence": "GCGGCCATTA", "switch fluorescence ratio": 0.973}
{"sequence": "GCGGCGAACG", "switch fluorescence ratio": 0.964}
{"sequence": "GCGGCGTGTG", "switch fluorescence ratio": 1.04}
{"sequence": "GCGGCTTGAG", "switch fluorescence ratio": 1.02}
{"sequence": "GCGGCTTGGC", "switch fluorescence ratio": 0.988}
{"sequence": "GCGGCTTTTG", "switch fluorescence ratio": 0.957}
{"sequence": "GCGGGAATCG", "switch fluorescence ratio": 1.02}
{"sequence": "GCGGGAATTT", "switch fluorescence ratio": 0.974}
{"sequence": "GCGGGAGAGC", "switch fluorescence ratio": 1.12}
{"sequence": "GCGGGCACGT", "switch fluorescence ratio": 0.969}
{"sequence": "GCGGGCAGG", "switch fluorescence ratio": 1.01}
{"sequence": "GCGGGCCCAT", "switch fluorescence ratio": 0.966}
{"sequence": "GCGGGCCCGT", "switch fluorescence ratio": 0.96}
{"sequence": "GCGGGCGCTG", "switch fluorescence ratio": 0.997}
{"sequence": "GCGGGCTCCG", "switch fluorescence ratio": 1.09}
{"sequence": "GCGGGGAGCA", "switch fluorescence ratio": 0.996}
{"sequence": "GCGGGGTATT", "switch fluorescence ratio": 1.04}
{"sequence": "GCGGGTAGGG", "switch fluorescence ratio": 1.02}
{"sequence": "GCGGGTAGGT", "switch fluorescence ratio": 0.968}
{"sequence": "GCGGGTATAC", "switch fluorescence ratio": 1.21}
{"sequence": "GCGGGTGGGC", "switch fluorescence ratio": 0.913}
{"sequence": "GCGGGTGGGT", "switch fluorescence ratio": 0.965}
{"sequence": "GCGGGTGTTG", "switch fluorescence ratio": 0.98}
{"sequence": "GCGGTAACTG", "switch fluorescence ratio": 1.16}
{"sequence": "GCGGTAATAA", "switch fluorescence ratio": 1.09}
{"sequence": "GCGGTATCAT", "switch fluorescence ratio": 0.979}
{"sequence": "GCGGTCGGCG", "switch fluorescence ratio": 1.01}
{"sequence": "GCGGTGACAT", "switch fluorescence ratio": 0.995}
{"sequence": "GCGGTTAGGT", "switch fluorescence ratio": 0.955}
{"sequence": "GCGGTTGATG", "switch fluorescence ratio": 0.977}
{"sequence": "GCGGTTGGGA", "switch fluorescence ratio": 0.963}
{"sequence": "GCGGTTGGTT", "switch fluorescence ratio": 1.02}
{"sequence": "GCGGTTTGCG", "switch fluorescence ratio": 1.05}
{"sequence": "GCGGTTTGTC", "switch fluorescence ratio": 0.979}
{"sequence": "GCGTAAAAGT", "switch fluorescence ratio": 0.962}
